Results reported in PubChem BioAssay AID493208 (National Center for Advancing Translational Sciences (NCATS), 2011).
In all, about 44,000 compounds went through this assay and about 340 (0.77%) were called active. About 5% were inconclusive and are not listed. Calls come from the whole dose curve; as a rule, active = well fitted inhibition curve with a large enough effect; inconclusive = small, poorly fitted or top-dose-only effect; inactive = flat fitted curve, though single readings scatter. The list shows a part of the results.

Test: Acumen qHTS Assay for Inhibitors of the mTORC1 Signaling Pathway in MEF (Tsc2-/-, p53-/-) Cells: Sytravon;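 note: plate controls were DMSO for no effect and rapamycin for full effect; nearly all actives have a fitted effect of over 50% in size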
Conditions: phospho-rpS6 immunofluorescence/PI, 24 h; series mostly up to 38.3 µM; activity change, negative = inhibition: at the top concentration
From the text: NIH Molecular Libraries Probe Production Centers Network [MLPCN] NIH Chemical Genomics Center [NCGC] MLPCN Grant: NS059428-01 Assay Submitter (PI): Blenis, John; Hoffman, Greg; Harvard University NCGC Assay Overview: The mammalian target of rapamycin (mTOR) is an intracellular serine/threonine kinase Aberrant regulation of mTOR signaling plays a causative role in a number of human diseases, including cancer, benign tumors such as lymphangioleiomyomatosis (LAM) and Tuberous Sclerosis Complex (TSC), and metabolic diseases such as diabetes and obesity. This project aims to identify inhibitors of ribosomal protein S6 (rpS6) phosphorylation. The phosphorylation of rpS6 is a key event downstream of mTOR activation. The assay uses a phospho-specific antibody of phospho-rpS6 to detect inhibitors of mTOR activation. Mutations in the Tsc1 and Tsc2 genes are the underlying genetic lesions responsible for TSC, causing constitutive activation of the mTORC1 pathway and leading to profound effects on cell metabolism. Aberrant metabolism in cancer has recently received significant attention as a target to develop therapeutic agents in the treatment of cancer.1 As Tsc2-/- cells have lost the ability to respond to energy and growth factor deprivation, these cells are unable to properly down regulate cellular biosynthetic processes in response to metabolic stress, and are thus extremely sensitive to glucose deprivation-induced death.2 A central goal of this project is to explore the unique cell survival and metabolic properties of cells with Tsc1 or Tsc2 by screening for compounds that selectively target the Tsc2-/- MEFs by screening both Tsc2-/- and WT MEF cell lines. We hope to better understand these aspects of TSC physiology in order to exploit them for therapeutic benefit.
NCGC Acumen Assay Protocol Summary: For quantitative high throughput analysis of mTORC1 signaling, we developed a cell-based assay for immuno-fluorescence based detection of rpS6 phosphorylation on the Acumen Explorer that will be used a platform for the primary small molecule screen. Mouse embryonic fibroblasts (MEFs) are cultured in 1536-well plates using DMEM + 10% FBS. Twenty-four hrs after plating, test compounds (solubilized in DMSO) are delivered and incubated with the cells for 24 hrs at 37 degree Celsius. Following the incubation, media with compound is aspirated and the cells are fixed in 4% paraformaldehyde (PFA) containing PBS + 0.2% TX-100. Next, PFA is aspirated, cells are washed two times with PBS plus 0.2% TX-100 and the cells are blocked for 1 hr at room temperature (blocking buffer: LiCOR Blocking Buffer plus 0.2% TX-100). […] Cells are washed two times with PBS plus 0.2% TX-100, and stained with 10 uM propidium iodide (PI) for 20-25 minutes for cell number measurement (1:500 dilution of Hoescht staining is also added for IN Cell imaging). The plates are scanned on the Acumen Explorer laser scanning instrument (TTP Labtech) using the 488nm laser for simultaneous excitation of the Alexa-488 and PI. […] The normalized phospho-S6 staining is calculated as the ratio of the integrated Alexa 488 intensity divided by the integrated PI intensity for the single concentration rapamycin control (7.5 nM) and DMSO columns. […] Inhibition of the pathway is defined based on the normalized phospho-S6 intensity in rapamycin treated cells. Active cells are defined as those with a normalized phospho-S6 staining above this threshold, and each treatment is reported as the % positive cells in the well, where thresholds are defined by selecting wells with the highest and lowest signal and differentiating between the % non-active and % active populations. In addition to the pathway specific phospho-S6 endpoint, the number of PI stained cells from the Acumen is recorded as a measure of cell viability. The primary screen was performed with a MEF cell line in a defined genetic background, Tsc2-/-, p53-/- cell line stably transfected with an empty vector control (Tsc2-/- MEF).

Activity change, negative = inhibition, inactive:
COc1ccc2cc(-c3cn4c(n3)sc3cc(F)ccc34)c(=O)oc2c1 0.349%, COc1ccc(/C=C/c2onc(C)c2S(=O)(=O)N2CCC(C(=O)N3CCC(C)CC3)CC2)cc1 -6.18%, Cc1ccccc1CSc1nc(-c2ccccc2)nc2c1Cc1c(CO)cnc(C)c1O2 -3%, CC(C)CCNC(=O)N1CCN(S(=O)(=O)c2ccc3c(ccn3C)c2)CC1 -13.1%, CCOC(=O)c1c(S(=O)(=O)N2CCCC(C(=O)Nc3cc(C)ccc3OC)C2)c(C)n(C)c1C (stereo not drawn) -5.06%, CCCCNC(=O)CCn1c(=O)c2ccccc2n(Cc2cc(C)ccc2C)c1=O 2.94%, COc1cccc(C2=NN(C(C)=O)C(c3cn(-c4ccccc4)nc3-c3cccs3)C2)c1 (stereo not drawn) -2.83%, CCOc1ccc(CCNC(=O)CCc2cn(Cc3ccc(C)cc3)c3ccccc23)cc1 -14.7%, CC1CCN(S(=O)(=O)c2ccc3c(c2)N(CC(=O)N2CCN(c4ccc(Cl)cc4)CC2)C(=O)CO3)CC1 -19.6%, Cc1ccc(C)c(N2CCN(C(=O)c3cc(S(=O)(=O)N4CCCCC4)cn3C)CC2)c1 1.97%, COc1ccc2[nH]cc(CCNC(=O)Nc3ccc(F)cc3)c2c1 0.0602%, O=C(c1ccc(CSc2nc3ccncc3n2Cc2ccccc2F)cc1)N1CCCCCC1 -7.4%, CCCC(=O)Nc1nnc(SCc2cc(=O)c3cc(C)ccc3[nH]2)s1 -1.31%, O=C(Cn1ncc2c3ccccc3n(Cc3ccc(Cl)cc3)c2c1=O)NCCCc1ccccc1 -1.48%, COc1ccc(Nc2oc(-c3ccc(COc4ccc(OC)cc4)o3)nc2C#N)cc1 -6%, CC(C)c1ccc(Nc2cc(C(=O)NCCc3ccccc3)c3ccccc3n2)cc1 -6.73%, CCc1ccccc1N1CC(c2nc3ccccc3n2CC(C)C)CC1=O (stereo not drawn) -9.47%, CCC(C)NC(=O)C1CCN(C(=O)c2cc3sccc3n2Cc2ccc(Cl)cc2)CC1 (stereo not drawn) -0.319%, Cc1ccc(C)c(S(=O)(=O)c2nnn3c2nc(N2CCCC2)c2sccc23)c1 -6.88%, CCCCN(CC)c1ncnc2c1sc1nc(N3CCOCC3)c3c(c12)CCCC3 -9.32%, CCC(=O)Nc1ccccc1-c1nc2ccccc2n(C(CC)C(=O)Nc2cccc(C(C)=O)c2)c1=O (stereo not drawn) -0.862%, CCCCN(CC)CCCn1cnc2c([nH]c3ccc(Cl)cc32)c1=O -0.44%, CC(C)(C)C1CCc2nc(NC(=O)COc3ccc(F)cc3)sc2C1 (stereo not drawn) -12.8%, CC(=O)Nc1ccc(-n2cc3c(c2-c2ccc(C)cc2)c(=O)n(C)c(=O)n3C)cc1 7.63%, CC(C)(C)c1ccc(OCCSc2nc(-c3cccs3)nc3cc(=O)[nH]n23)cc1 3.16%, Cc1oc(-c2ccc(C(=O)Nc3ccc(F)cc3F)cc2)nc1COc1ccccc1 -8.22%, Cn1c(SCC(=O)Nc2ccc(F)cc2)nc2c([nH]c3ccccc32)c1=O -3.03%, COc1cccc(-c2cc(C(=O)NCc3ccccc3)[nH]n2)c1 -0.154%, CN(C)C(=O)c1ccc2c(c1)N(CC(=O)NCc1ccc(F)cc1)C(=O)C1CCCCN21 (stereo not drawn) -2.2%, Cn1cc(C(=O)O)c(=O)c2cc(S(=O)(=O)N3CCCCC3)ccc21 1.55%, Cc1ccc(CN2C(=O)c3ccccc3S(=O)(=O)c3ccc(C(=O)OCC4CCCO4)cc32)cc1 (stereo not drawn) -6.4%, Cc1ccc(NC(=O)C(Cc2ccccc2)NS(=O)(=O)c2ccc3c(c2)c(=O)n(C)c(=O)n3C)cc1 (stereo not drawn) 1.36%, CCN(C(=O)c1cc(S(=O)(=O)N2CCOCC2)cn1C)c1ccc(OC)cc1 11.5%, CCCC(=O)Oc1c(Sc2ccc(Cl)cc2)c(C)nn1-c1ccccc1 0.798%, CCOc1nc(NC(=O)NS(=O)(=O)Oc2ccc(Cl)cc2)nc(-c2ccccc2)n1 1.41%, Cc1cccn2c(=O)c3cc(C(=O)NCCc4ccc(S(N)(=O)=O)cc4)n(C)c3nc12 9.31%, COc1ccc(CCNC(=O)CCn2c(=O)c3ccccc3n(CC(=O)Nc3cccc(C)c3)c2=O)cc1OC 1.62%, CC(=O)c1ccc(NC(=O)Cn2c(-n3nc(C)cc3C)nc(C)cc2=O)cc1 -21.2%, COc1cc(OC)cc(-c2nnc(SCC(=O)N3CCC(C)CC3)o2)c1 -11.6%, Cc1ccc2c(c1)cc1c(=O)n(CC(=O)NCc3ccco3)nc(C)n12 0.857%, COc1cccc(-n2cc(C(=O)Oc3ccc(F)cc3)c3ccccc3c2=O)c1 -3.12%, Cc1nn2c(=O)cc(COC(=O)c3ccccc3NC(=O)C(C)C)nc2s1 23%, COc1cc(C(=O)Nc2cccc(OCc3cc(=O)n4c(C)csc4n3)c2)cc(OC)c1OC -1.22%, Cc1noc2ncnc(N3CCCC(C(=O)NCCC(C)C)C3)c12 (stereo not drawn) -13.3%, COc1ccc(S(=O)(=O)N2CCC(c3nnc(-c4ccccc4C)o3)CC2)c(OC)c1 -23.5%, Cc1ccc(S(=O)(=O)c2c(Nc3ccccc3)sc(C(=O)c3ccc4c(c3)OCO4)c2N)cc1 -11.9%, COc1ccc(-c2nc(SCC(=O)NCC3CCCO3)c(-c3ccc(Cl)cc3)[nH]2)cc1 (stereo not drawn) -0.912%, Cc1c(Cl)ccc2sc(NC(=O)c3ccc(S(=O)(=O)N4CCCC4)cc3)nc12 0.635%
